The supplement of paper PMC8728848
The list shows a part of the results.

Key:
Test in all cases: glycan array binding signal (z-score within array); higher = stronger binding
Conditions in all cases: glycan notation: IUPAC condensed, linker removed
[1] = target: Man(a1-2)Man(a1-3)[Man(a1-2)Man(a1-6)]Man
In short: (§1)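 Negative Z-scores can be read as non-binding. The Z-score is calculated within each array and then averaged across arrays of one protein sequence at different concentrations or buffers and across linkers. Arrays, 3228 in all, were curated from the Consortium for Functional Glycomics database and kept only where the protein sequence was available.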

[2] = target: Man(a1-2)Man(a1-3)[Man(a1-2)Man(a1-6)]Man(a1-6)[Man(a1-2)Man(a1-2)Man(a1-3)]Man
In short: as §1

[3] = target: Man(a1-2)Man(a1-3)[Man(a1-2)Man(a1-6)]Man(a1-6)[Man(a1-2)Man(a1-2)Man(a1-3)]Man(b1-4)GlcNAc(b1-4)GlcNAc
In short: as §1

[4] = target: Man(a1-2)Man(a1-3)[Man(a1-6)]Man(a1-6)[Man(a1-2)Man(a1-3)]Man(b1-4)GlcNAc(b1-4)GlcNAc
In short: as §1

[5] = target: Man(a1-2)Man(a1-6)[Man(a1-3)]Man(a1-6)[Man(a1-2)Man(a1-2)Man(a1-3)]Man
In short: as §1

[6] = target: Man(a1-2)Man(a1-6)[Man(a1-3)]Man(a1-6)[Man(a1-2)Man(a1-2)Man(a1-3)]Man(b1-4)GlcNAc(b1-4)GlcNAc
In short: as §1

Man(a1-3)[Man(a1-6)]Man = target: Man(a1-3)[Man(a1-6)]Man
In short: as §1

[7] = target: Man(a1-3)[Man(a1-6)]Man(a1-6)[Man(a1-2)Man(a1-3)]Man(b1-4)GlcNAc(b1-4)GlcNAc
In short: as §1

[8] = target: Man(a1-3)[Man(a1-6)]Man(a1-6)[Man(a1-3)]Man
In short: as §1

[9] = target: Man(a1-3)[Man(a1-6)]Man(a1-6)[Man(a1-3)]Man(b1-4)GlcNAc(b1-4)GlcNAc
In short: as §1

[10] = target: Man(a1-3)[Man(a1-6)]Man(b1-4)GlcNAc(b1-4)GlcNAc
In short: as §1

[11] = target: Man(a1-3)[Man(a1-6)]Man(b1-4)GlcNAc(b1-4)[Fuc(a1-6)]GlcNAc
In short: as §1

Man(a1-6)Man = target: Man(a1-6)Man
In short: as §1

Man(b1-4)GlcNAc = target: Man(b1-4)GlcNAc
In short: as §1

MurNAc(b1-4)GlcNAc = target: MurNAc(b1-4)GlcNAc
In short: as §1

Neu5Ac(a2-3)Gal = target: Neu5Ac(a2-3)Gal
In short: as §1

[12] = target: Neu5Ac(a2-3)Gal(b1-3)GalNAc
In short: as §1

[13] = target: Neu5Ac(a2-3)Gal(b1-3)GalNAc(b1-3)Gal(a1-4)Gal(b1-4)Glc
In short: as §1

[14] = target: Neu5Ac(a2-3)Gal(b1-3)GalNAc(b1-4)[Neu5Ac(a2-3)]Gal(b1-4)Glc
In short: as §1

[15] = target: Neu5Ac(a2-3)Gal(b1-3)GalNAc(b1-4)[Neu5Ac(a2-8)Neu5Ac(a2-3)]Gal(b1-4)Glc
In short: as §1

[16] = target: Neu5Ac(a2-3)Gal(b1-3)GalNAc6S
In short: as §1

[17] = target: Neu5Ac(a2-3)Gal(b1-3)GlcNAc
In short: as §1

[18] = target: Neu5Ac(a2-3)Gal(b1-3)GlcNAc(b1-2)Man
In short: as §1

[19] = target: Neu5Ac(a2-3)Gal(b1-3)GlcNAc(b1-2)Man(a1-3)[GlcNAc(b1-4)][Neu5Ac(a2-3)Gal(b1-3)GlcNAc(b1-2)Man(a1-6)]Man(b1-4)GlcNAc(b1-4)GlcNAc
In short: as §1

[20] = target: Neu5Ac(a2-3)Gal(b1-3)GlcNAc(b1-2)Man(a1-3)[Neu5Ac(a2-3)Gal(b1-3)GlcNAc(b1-2)Man(a1-6)]Man(b1-4)GlcNAc(b1-4)GlcNAc
In short: as §1

[21] = target: Neu5Ac(a2-3)Gal(b1-3)GlcNAc(b1-3)Gal(b1-3)GlcNAc
In short: as §1

[22] = target: Neu5Ac(a2-3)Gal(b1-3)GlcNAc(b1-3)Gal(b1-4)GlcNAc
In short: as §1

[23] = target: Neu5Ac(a2-3)Gal(b1-3)GlcNAc(b1-3)GalNAc
In short: as §1

[24] = target: Neu5Ac(a2-3)Gal(b1-3)GlcNAc(b1-4)Gal(b1-4)Glc
In short: as §1

[25] = target: Neu5Ac(a2-3)Gal(b1-3)GlcNAc(b1-6)GalNAc
In short: as §1

[26] = target: Neu5Ac(a2-3)Gal(b1-3)GlcNAc6S
In short: as §1

[27] = target: Neu5Ac(a2-3)Gal(b1-3)[Fuc(a1-4)]GlcNAc
In short: as §1

[28] = target: Neu5Ac(a2-3)Gal(b1-3)[Fuc(a1-4)]GlcNAc(b1-3)Gal(b1-3)[Fuc(a1-4)]GlcNAc
In short: as §1

[29] = target: Neu5Ac(a2-3)Gal(b1-3)[Fuc(a1-4)]GlcNAc(b1-3)Gal(b1-4)[Fuc(a1-3)]GlcNAc
In short: as §1

[30] = target: Neu5Ac(a2-3)Gal(b1-3)[GlcNAc(b1-6)]GalNAc
In short: as §1

[31] = target: Neu5Ac(a2-3)Gal(b1-3)[Neu5Ac(a2-6)]GalNAc
In short: as §1

[32] = target: Neu5Ac(a2-3)Gal(b1-3)[Neu5Ac(a2-6)]GlcNAc(b1-3)[Fuc(a1-3)[Gal(b1-4)]GlcNAc(b1-6)]Gal(b1-4)Glc
In short: as §1

[33] = target: Neu5Ac(a2-3)Gal(b1-3)]Neu5Ac(a2-3)Gal(b1-4)]GlcNAc
In short: as §1

Neu5Ac(a2-3)Gal(b1-4)Glc = target: Neu5Ac(a2-3)Gal(b1-4)Glc
In short: as §1

[34] = target: Neu5Ac(a2-3)Gal(b1-4)GlcNAc
In short: as §1

[35] = target: Neu5Ac(a2-3)Gal(b1-4)GlcNAc(b1-2)Man
In short: as §1

[36] = target: Neu5Ac(a2-3)Gal(b1-4)GlcNAc(b1-2)Man(a1-3)[GlcNAc(b1-4)][Neu5Ac(a2-3)Gal(b1-4)GlcNAc(b1-2)Man(a1-6)]Man(b1-4)GlcNAc(b1-4)GlcNAc
In short: as §1

[37] = target: Neu5Ac(a2-3)Gal(b1-4)GlcNAc(b1-2)Man(a1-3)[Neu5Ac(a2-3)Gal(b1-4)GlcNAc(b1-2)Man(a1-6)]Man(b1-4)GlcNAc(b1-4)GlcNAc
In short: as §1

[38] = target: Neu5Ac(a2-3)Gal(b1-4)GlcNAc(b1-2)Man(a1-3)[Neu5Ac(a2-3)Gal(b1-4)GlcNAc(b1-2)Man(a1-6)]Man(b1-4)GlcNAc(b1-4)[Fuc(a1-6)]GlcNAc
In short: as §1

[39] = target: Neu5Ac(a2-3)Gal(b1-4)GlcNAc(b1-2)Man(a1-3)[Neu5Ac(a2-6)Gal(b1-4)GlcNAc(b1-2)Man(a1-6)]Man(b1-4)GlcNAc(b1-4)GlcNAc
In short: as §1

B1: LBL-152 (Laetiporus bicolor), B0D650 (protein)
chain: MSNEYNPPLGIAFRLCGLASDRVLFSRVSPSPEVFHHPKSEVYPDQWFVAIPGSGQNAGCYAIKSKNTGKVLFSRMSPDPRVGHIDGDGKYPDNWFKFEAGSGKYAGYFRLRAVASDTVLVSRTSTGTDTQVINYPATSAKYDDQYFTILFDHHHHHH
- glycan array binding signal (z-score) [1]: -0.154
- glycan array binding signal (z-score) [2]: -0.159
- glycan array binding signal (z-score) [3]: -0.151
- glycan array binding signal (z-score) [4]: -0.16
- glycan array binding signal (z-score) [5]: -0.156
- glycan array binding signal (z-score) [6]: -0.159
- glycan array binding signal (z-score) (Man(a1-3)[Man(a1-6)]Man): -0.161
- glycan array binding signal (z-score) [7]: -0.156
- glycan array binding signal (z-score) [8]: -0.153
- glycan array binding signal (z-score) [9]: -0.15
- glycan array binding signal (z-score) [10]: -0.16
- glycan array binding signal (z-score) [11]: -0.159
- glycan array binding signal (z-score) (Man(a1-6)Man): -0.143
- glycan array binding signal (z-score) (Man(b1-4)GlcNAc): -0.149
- glycan array binding signal (z-score) (MurNAc(b1-4)GlcNAc): -0.155
- glycan array binding signal (z-score) (Neu5Ac(a2-3)Gal): -0.159
- glycan array binding signal (z-score) [12]: -0.155
- glycan array binding signal (z-score) [13]: -0.15
- glycan array binding signal (z-score) [14]: -0.155
- glycan array binding signal (z-score) [15]: -0.145
- glycan array binding signal (z-score) [16]: -0.155
- glycan array binding signal (z-score) [17]: -0.154
- glycan array binding signal (z-score) [18]: -0.153
- glycan array binding signal (z-score) [19]: -0.152
- glycan array binding signal (z-score) [20]: -0.146
- glycan array binding signal (z-score) [21]: -0.16
- glycan array binding signal (z-score) [22]: -0.158
- glycan array binding signal (z-score) [23]: -0.153
- glycan array binding signal (z-score) [24]: -0.159
- glycan array binding signal (z-score) [25]: -0.148
- glycan array binding signal (z-score) [26]: -0.151
- glycan array binding signal (z-score) [27]: -0.148
- glycan array binding signal (z-score) [28]: -0.147
- glycan array binding signal (z-score) [29]: -0.148
- glycan array binding signal (z-score) [30]: -0.162
- glycan array binding signal (z-score) [31]: -0.158
- glycan array binding signal (z-score) [32]: -0.155
- glycan array binding signal (z-score) [33]: -0.156
- glycan array binding signal (z-score) (Neu5Ac(a2-3)Gal(b1-4)Glc): -0.151
- glycan array binding signal (z-score) [34]: -0.158
- glycan array binding signal (z-score) [35]: -0.149
- glycan array binding signal (z-score) [36]: -0.151
- glycan array binding signal (z-score) [37]: -0.153
- glycan array binding signal (z-score) [38]: -0.16
- glycan array binding signal (z-score) [39]: -0.151
